# Measurements taken from PubChem BioAssay AID1508642 (National Center for Advancing Translational Sciences (NCATS), 2021).
# Among all 43,000 compounds or so, about 200 (0.47%) were called active. Not shown: some 12% with an inconclusive outcome. Calls follow the shape of the dose curve; as a rule, active = well fitted cell-killing curve with a large enough effect; inconclusive = small, poorly fitted or top-dose-only effect, or effect the other way; inactive = flat fitted curve, though single readings scatter. The list shows a part of the results.
# Assay: Cell viability qHTS assay in S16 Pmp22-F2sN cells; also: nearly all actives have a fitted effect of over 65% in size
# Details: S16 Pmp22-F2sN Schwann cells viability, CellTiter-Glo, 24 h; series mostly up to 57.5 µM; activity change, negative = cytotoxicity: at the top concentration
# How it was run: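 Viability was measured by CellTiter-Glo luminescence (15 min, room temperature). This followed 24 h at 37 °C of compound exposure (23 nL pin transfer) in S16 Pmp22-F2sN Schwann cells, 500-1,000 per well.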
# % is scaled to controls: 0 for no effect and ±100 for the full control effect.
row,SMILES,"activity change, negative = cytotoxicity"
1,Cc1cccc(-n2ncc3c(NC4CCCC4)ncnc32)c1,inactive: 6.54%
2,CCC(CC)C(=O)Nc1cccc(-c2nc3ccccc3s2)c1,inactive: -3.45%
3,CCOc1ccc(-c2nnc(SCC(=O)NCc3ccc(C)cc3)nc2-c2ccc(OCC)cc2)cc1,inactive: 1.85%
4,Fc1ccc(-c2cn3cc(Cc4ccc(Cl)cc4)sc3n2)cc1,inactive: 5.58%
5,Cc1ccccc1CSc1nc2c(sc3ccccc32)c(=O)n1CCCOC(C)C,inactive: -24.5%
6,COc1cc(OC)cc(N2CCN(S(=O)(=O)c3ccc(-n4cnnn4)cc3)CC2)c1,inactive: 1%
7,COc1ccc(-c2cn3nc(N4CCCC(C(=O)NCc5ccccc5Cl)C4)sc3n2)cc1 (stereo not drawn),inactive: -18.8%
8,Cc1cccc(CNC(=O)CCn2ccc3cc(S(=O)(=O)N4CCCC4)ccc32)c1,inactive: -5.07%
9,COc1ccc(OC)c(CCNC(=O)c2cnn(-c3ccccc3)c2C2CCN(C(=O)OC(C)(C)C)CC2)c1,inactive: -10.2%
10,Cc1ccc(-n2nnnc2CNC(=O)C(C)C)cc1C,inactive: 6.08%
11,CCSc1nnc2c(n1)OC(CC)N(C(C)=O)c1ccccc1-2 (stereo not drawn),inactive: -1.84%
12,Cc1nn(C)c2c1c(-c1ccccc1)cc(=O)n2C(C)C(=O)NCc1ccc(F)cc1 (stereo not drawn),inactive: 6.37%
13,CCN1CCN(C(c2cccc(F)c2)c2c(O)cc(C)n(Cc3ccco3)c2=O)CC1 (stereo not drawn),inactive: 0.873%
14,CCCn1ccc2c(OCC(=O)NCc3ccccc3Cl)cccc2c1=O,inactive: -14.7%
15,O=C(CSc1nccn1Cc1ccccc1)NCc1ccccc1Cl,inactive: 17.8%
16,CCc1ccccc1NC(=O)NCc1ccc2c(c1)CCN2C(=O)c1ccccc1,inactive: -15.1%
17,O=C(Nc1ccccc1C(=O)OCc1cc(=O)n2c3c(sc2n1)CCCC3)c1cccc(Cl)c1,inactive: 15.7%
18,CC(C)Cn1cc(NC(=O)N2CCN(c3ccccc3F)CC2)c2ccccc2c1=O,inactive: 7.71%
19,Cc1cc(C)nc(NS(=O)(=O)c2ccc(NC(=O)COc3ccc(C(C)(C)C)cc3)cc2)n1,inactive: -1.5%
20,CCCn1c2ccccc2c2cnn(CC(=O)NCCc3ccccc3)c(=O)c21,inactive: -2.6%
21,COC(=O)c1ccc(Cn2c(=O)cc(C(F)(F)F)c3c(C)nn(C)c32)cc1,inactive: -0.217%
22,Cc1cccc(-c2nc(Cn3c(=O)cc(-c4ccccc4)c4c(C)nn(C)c43)c(C)o2)c1,inactive: -2.21%
23,Cc1ccccc1Cn1c(=O)n(CCc2ccccc2)c(=O)c2ccccc21,inactive: 27%
24,CCOc1ccc(S(=O)(=O)N(CC(=O)NCCSc2ccccc2)c2ccccc2)cc1,inactive: 12.2%

row,SMILES,"activity change, negative = cytotoxicity"
1,CCN(c1ccc(OC)cc1)S(=O)(=O)c1ccc2[nH]c(=O)ccc2c1,inactive: -3.95%
2,O=C(Cn1c2ncccc2c(=O)n1-c1ccccc1)Nc1ccc(F)c(F)c1,inactive: 2.83%
3,O=C(NCc1ccc(Cl)cc1)C1CCCN(c2nc3ccccc3n3cccc23)C1 (stereo not drawn),inactive: -6%
4,Cc1ccc(C)c(N2CCN(Cc3csc(C)c3C)CC2)c1,inactive: 7.88%
5,COc1ccccc1-c1cc(C(=O)N2CCCCC2C)no1 (stereo not drawn),inactive: -7.64%
6,CCCCC(=O)Nc1ccc2nc(SCC(=O)N3CCCC3)sc2c1,inactive: 28.4%
7,Nc1c(-c2nc(-c3cccs3)no2)nnn1-c1cccc(Cl)c1,inactive: 8.11%
8,COc1ccc(CNC(=O)c2nn(-c3ccccc3C)nc2CO)cc1,inactive: -7.32%
9,COc1ccc(OC)c(C(C)NC(=O)Cn2c(=O)cc(C)c3c(C)nn(-c4ccc(C)cc4)c32)c1 (stereo not drawn),inactive: 9.92%
10,COc1cccc(CNC(=O)C(NS(=O)(=O)c2ccc3c(c2)CCN3C(C)=O)C(C)C)c1 (stereo not drawn),inactive: 2.38%
11,CCc1ccc(Nc2ncnc3c2cnn3-c2cc(Cl)ccc2C)cc1,inactive: -26.3%
12,CCOC(=O)N1CCC(NC(=O)c2ccc3c(c2)N(Cc2ccc(F)cc2)C(=O)c2ccccc2S3(=O)=O)CC1,inactive: -13.9%
13,Cc1ccc(CNC(=O)c2ccc3c(O)c(S(=O)(=O)c4ccccc4)c(=O)[nH]c3c2)cc1,inactive: 3.98%
14,CCOc1ccccc1NC(=O)c1nnn(CC(=O)Nc2ccc(OC)c(OC)c2)c1N,inactive: -5.51%
15,O=C(CSc1nc2ccccc2nc1Cc1ccc(Cl)cc1)NCCc1ccccc1,inactive: 7.71%
16,CCOc1ccc(NC(=O)C(NS(=O)(=O)c2ccc3c(c2)CCN3C(C)=O)C(C)C)cc1 (stereo not drawn),inactive: -10.1%
17,Cc1ccc(N(Cc2cccs2)C(=O)c2ccc(Br)o2)cc1,inactive: -14.5%
18,Cc1cc(=O)n2nc(N3CCC(C(=O)Nc4ccc(C)c(Cl)c4)CC3)sc2n1,inactive: 5.8%
19,COc1ccc(CNC(=O)Cc2c(C)c3c(cc(C)c4c(C)c(C)oc43)oc2=O)cc1,inactive: 7.9%
20,CCSc1ncc(Cl)c(C(=O)Nc2nc3ccc(OC)cc3s2)n1,inactive: 0.411%
21,Cn1nc(C(=O)NCc2ccc(Cl)cc2)c2c1-c1ccccc1SC2,inactive: 13.3%
22,COc1ccc(CNC(=O)CCS(=O)(=O)c2ccc3c(c2)oc(=O)n3C)cc1,inactive: 3.84%
23,CCOc1cc(C2c3c(-c4ccc(Br)cc4)n[nH]c3C(=O)N2c2ccc(Cl)cc2)ccc1O (stereo not drawn),inactive: -19.5%
24,CCc1nonc1NC(=O)c1oc2ccccc2c1C,inactive: -2.5%
